Test results from the supplement of paper PMC3334620.
In all, about 33,000 sequences were measured (“E-score (-0.5 to 0.5)”: median about -0.032, highest 2% from about 0.36 on). The list shows a part of the results.

target: T1, Sko1 (UniProt Q02100); assay: PBM E-score (8-mer binding enrichment) (E-score (-0.5 to 0.5)); higher = stronger / more preferred TF binding; most listed sequences are background and not binding sites; details: protein concentration: 200 nM; construct: GST-full length
T1 sequence: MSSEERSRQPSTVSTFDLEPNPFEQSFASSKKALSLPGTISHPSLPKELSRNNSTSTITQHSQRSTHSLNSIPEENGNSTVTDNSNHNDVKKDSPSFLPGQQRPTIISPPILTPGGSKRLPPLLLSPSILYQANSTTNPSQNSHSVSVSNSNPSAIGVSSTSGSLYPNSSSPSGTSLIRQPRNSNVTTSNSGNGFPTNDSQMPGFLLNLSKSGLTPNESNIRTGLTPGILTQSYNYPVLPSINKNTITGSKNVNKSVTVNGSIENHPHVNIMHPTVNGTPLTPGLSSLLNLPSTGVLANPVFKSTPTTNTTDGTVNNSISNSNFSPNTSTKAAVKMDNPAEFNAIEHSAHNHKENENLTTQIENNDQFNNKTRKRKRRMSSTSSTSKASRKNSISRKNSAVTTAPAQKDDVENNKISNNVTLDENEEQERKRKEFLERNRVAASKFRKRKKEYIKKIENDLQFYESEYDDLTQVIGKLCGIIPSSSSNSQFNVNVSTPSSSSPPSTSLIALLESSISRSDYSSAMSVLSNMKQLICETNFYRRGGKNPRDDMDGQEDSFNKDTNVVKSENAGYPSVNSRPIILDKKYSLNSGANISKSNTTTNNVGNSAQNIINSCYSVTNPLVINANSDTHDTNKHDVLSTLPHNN
Experimental: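 Universal 'all 10-mer' protein binding microarrays (Agilent AMADID 015681) probed with GST-tagged S. cerevisiae TFs (full-length or DBD) made by in vitro transcription/translation (PURExpress), about 100-200 nM. Bound TF was detected with fluorescent anti-GST. Each ungapped 8-mer (which stands for itself and its reverse complement) is scored by the PBM enrichment score (E-score), a modified Wilcoxon-Mann-Whitney statistic from -0.5 to +0.5, computed with the Universal PBM Analysis Suite. Scale: above 0.35 generally sequence-specific binding.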

Going from ACCTACCT to ATCGAACG, the “PBM E-score” value rises from -0.109 to 0.165.

Compared with AAATATGA, ACATCTGC is lower in “PBM E-score” value: 0.23 for the first, -0.126 for the second.

Going from CTGAGGAC to GGTGTCGA, the “PBM E-score” value rises from -0.113 to -0.11.

Compared with TTGTTAAA, AGAACAGG is lower in “PBM E-score” value: -0.0742 for the first, -0.121 for the second.

First: CATAATCC
Second: GCGCAGTA
The “PBM E-score” value of the first is lower: -0.0152 for the first, 0.0755 for the second.

First: ACTACGTC
Second: GATCGTCC
The “PBM E-score” value of the first is higher: 0.433 for the first, -0.19 for the second.

First: CTTGCCCC
Second: GAATGGGA
The “PBM E-score” value of the first is lower: -0.383 for the first, -0.159 for the second.

Going from ATATCTTC to CCGAATTA, the “PBM E-score” value falls from 0.129 to -0.0393.

Going from CACGGTTC to AAGCACCC, the “PBM E-score” value falls from -0.0555 to -0.213.

Going from CTTTAAAA to AATCTGAG, the “PBM E-score” value falls from 0.152 to 0.102.

First: CAATACGA
Second: ACGGTCTG
The “PBM E-score” value of the first is higher: 0.141 for the first, -0.0646 for the second.

First: GTGCCCAA
Second: GAGTATAC
The “PBM E-score” value of the first is lower: -0.0696 for the first, 0.192 for the second.

First: CAGCTACA
Second: GCCTTGCC
The “PBM E-score” value of the first is higher: -0.123 for the first, -0.237 for the second.

First: GACTAAGC
Second: CGGTTAGC
The “PBM E-score” value of the first is lower: -0.231 for the first, -0.2 for the second.

Compared with ATTAAGTA, CGTTAATA is lower in “PBM E-score” value: 0.152 for the first, 0.122 for the second.

Going from GGGACAAC to GCCGGCCC, the “PBM E-score” value falls from -0.139 to -0.356.

First: CAAGCTTA
Second: GACTGTCC
The “PBM E-score” value of the first is higher: 0.00458 for the first, -0.249 for the second.

Going from GGGAAAAC to TATGACAA, the “PBM E-score” value rises from -0.118 to 0.21.

First: CAATCAGG
Second: ACCATTCG
The “PBM E-score” value of the first is higher: -0.067 for the first, -0.0948 for the second.

Compared with CGTAAGTC, ATTGCAAA is lower in “PBM E-score” value: 0.276 for the first, 0.00033 for the second.

Compared with ATTTGTTG, AATGGAGA is lower in “PBM E-score” value: 0.212 for the first, -0.101 for the second.

Going from AGGCAAAG to ACTAGTCT, the “PBM E-score” value falls from -0.0571 to -0.117.

Compared with CGGTAGGA, ATTCACGA is higher in “PBM E-score” value: -0.235 for the first, 0.222 for the second.

Going from GCCGCCGA to GACCCTGC, the “PBM E-score” value falls from -0.105 to -0.219.

Compared with AGGGATAA, TACAAGTA is higher in “PBM E-score” value: 0.0363 for the first, 0.153 for the second.

Going from GCACCGGC to AGGGCGTA, the “PBM E-score” value rises from -0.151 to -0.0132.

First: ATCCTACG
Second: CGTGCCGA
The “PBM E-score” value of the first is higher: 0.116 for the first, 0.0979 for the second.

Compared with ATAGGGAG, ATAATCCA is higher in “PBM E-score” value: -0.215 for the first, 0.0742 for the second.

First: ATCTACAT
Second: GGGTACGA
The “PBM E-score” value of the first is higher: 0.227 for the first, 0.0659 for the second.

Going from ATATCCAG to CCCACTTC, the “PBM E-score” value falls from -0.0263 to -0.144.

First: TAAACATA
Second: CCGGTCGA
The “PBM E-score” value of the first is higher: 0.199 for the first, -0.355 for the second.

Compared with AAACATAA, GATGTTCA is lower in “PBM E-score” value: 0.119 for the first, -0.13 for the second.

Compared with GACGGTCC, ACAAGTTG is higher in “PBM E-score” value: -0.27 for the first, -0.041 for the second.

First: CAACGGGC
Second: AACAAACA
The “PBM E-score” value of the first is lower: -0.0486 for the first, 0.101 for the second.

First: AAATTTAG
Second: GCCAACGA
The “PBM E-score” value of the first is higher: 0.128 for the first, -0.186 for the second.

Going from CCGGAGCG to CCTGCGTC, the “PBM E-score” value rises from -0.124 to 0.122.

Compared with CTGTTATA, AAGCTATT is lower in “PBM E-score” value: 0.177 for the first, 0.08 for the second.

First: ACGACGAG
Second: GATTGTAA
The “PBM E-score” value of the first is lower: 0.00694 for the first, 0.121 for the second.

Compared with CAACTTAG, AAACGGAG is lower in “PBM E-score” value: 0.135 for the first, -0.0521 for the second.

Compared with CCGAAGTC, CTACGCCA is higher in “PBM E-score” value: -0.193 for the first, 0.28 for the second.

Compared with GCACACCC, ACTACGCT is higher in “PBM E-score” value: -0.106 for the first, 0.153 for the second.

Compared with TCAGGGCA, TGCATCCA is lower in “PBM E-score” value: -0.0833 for the first, -0.142 for the second.

Going from TCTGTTAA to AGCACGCA, the “PBM E-score” value rises from 0.128 to 0.152.
